B1: GGUACCA (DNA:RNA)
RNA: GGGAGACCGGAAUUCAGAUUGUCCGGUACCAUUAAAUCCCGUCGUAGCCACCA
DNA 1: CAATCTGAATTCCGGTCTCCC
DNA 2: TGGTGGCTACGACGGGATT
B2: GGUGUCC (DNA:RNA)
RNA: B1 RNA with A28G, C29U, A31C
DNA 1: CAATCTGAATTCCGGTCTCCC
DNA 2: TGGTGGCTACGACGGGATT
B3: GACCCUU (DNA:RNA)
RNA: B1 RNA with G26A, U27C, A28C, C30U, A31U
DNA 1: CAATCTGAATTCCGGTCTCCC
DNA 2: TGGTGGCTACGACGGGATT
B4: CGAAAAG (DNA:RNA)
RNA: B1 RNA with G25C, U27A, C29A, C30A, A31G
DNA 1: CAATCTGAATTCCGGTCTCCC
DNA 2: TGGTGGCTACGACGGGATT
B5: CAUGUCC (DNA:RNA)
RNA: B1 RNA with G25C, G26A, A28G, C29U, A31C
DNA 1: CAATCTGAATTCCGGTCTCCC
DNA 2: TGGTGGCTACGACGGGATT
B6: AACUAGG (DNA:RNA)
RNA: GGGAGACCGGAAUUCAGAUUGUCCAACUAGGUUAAAUCCCGUCGUAGCCACCA
DNA 1: CAATCTGAATTCCGGTCTCCC
DNA 2: TGGTGGCTACGACGGGATT
B7: AGUCGUU (DNA:RNA)
RNA: B1 RNA with G25A, A28C, C29G, C30U, A31U
DNA 1: CAATCTGAATTCCGGTCTCCC
DNA 2: TGGTGGCTACGACGGGATT
B8: AACCCAG (DNA:RNA)
RNA: B6 RNA with U28C, A29C, G30A
DNA 1: CAATCTGAATTCCGGTCTCCC
DNA 2: TGGTGGCTACGACGGGATT
B9: CCCCGGC (DNA:RNA)
RNA: B6 RNA with A25C, A26C, U28C, A29G, G31C
DNA 1: CAATCTGAATTCCGGTCTCCC
DNA 2: TGGTGGCTACGACGGGATT
B10: CGAGAGC (DNA:RNA)
RNA: B6 RNA with A25C, A26G, C27A, U28G, G31C
DNA 1: CAATCTGAATTCCGGTCTCCC
DNA 2: TGGTGGCTACGACGGGATT
B11: GGCCACA (DNA:RNA)
RNA: B1 RNA with U27C, A28C, C29A
DNA 1: CAATCTGAATTCCGGTCTCCC
DNA 2: TGGTGGCTACGACGGGATT
B12: AACAUCA (DNA:RNA)
RNA: B6 RNA with U28A, A29U, G30C, G31A
DNA 1: CAATCTGAATTCCGGTCTCCC
DNA 2: TGGTGGCTACGACGGGATT
B13: UUCUCCC (DNA:RNA)
RNA: B6 RNA with A25U, A26U, A29C, G30C, G31C
DNA 1: CAATCTGAATTCCGGTCTCCC
DNA 2: TGGTGGCTACGACGGGATT
B14: UUGUCAU (DNA:RNA)
RNA: B6 RNA with A25U, A26U, C27G, A29C, G30A, G31U
DNA 1: CAATCTGAATTCCGGTCTCCC
DNA 2: TGGTGGCTACGACGGGATT
B15: ACCGGAU (DNA:RNA)
RNA: B6 RNA with A26C, U28G, A29G, G30A, G31U
DNA 1: CAATCTGAATTCCGGTCTCCC
DNA 2: TGGTGGCTACGACGGGATT
B16: CAAUUAA (DNA:RNA)
RNA: B6 RNA with A25C, C27A, A29U, G30A, G31A
DNA 1: CAATCTGAATTCCGGTCTCCC
DNA 2: TGGTGGCTACGACGGGATT
B17: UAUUGCG (DNA:RNA)
RNA: B6 RNA with A25U, C27U, A29G, G30C
DNA 1: CAATCTGAATTCCGGTCTCCC
DNA 2: TGGTGGCTACGACGGGATT
B18: UUCAGGG (DNA:RNA)
RNA: B6 RNA with A25U, A26U, U28A, A29G
DNA 1: CAATCTGAATTCCGGTCTCCC
DNA 2: TGGTGGCTACGACGGGATT
B19: GUGCGUG (DNA:RNA)
RNA: B6 RNA with A25G, A26U, C27G, U28C, A29G, G30U
DNA 1: CAATCTGAATTCCGGTCTCCC
DNA 2: TGGTGGCTACGACGGGATT
B20: GUGAUGU (DNA:RNA)
RNA: B1 RNA with G26U, U27G, C29U, C30G, A31U
DNA 1: CAATCTGAATTCCGGTCTCCC
DNA 2: TGGTGGCTACGACGGGATT
B21: GUUAAUC (DNA:RNA)
RNA: B1 RNA with G26U, C29A, C30U, A31C
DNA 1: CAATCTGAATTCCGGTCTCCC
DNA 2: TGGTGGCTACGACGGGATT
B22: ACGGACG (DNA:RNA)
RNA: B6 RNA with A26C, C27G, U28G, G30C
DNA 1: CAATCTGAATTCCGGTCTCCC
DNA 2: TGGTGGCTACGACGGGATT
B23: UCCAUUU (DNA:RNA)
RNA: B6 RNA with A25U, A26C, U28A, A29U, G30U, G31U
DNA 1: CAATCTGAATTCCGGTCTCCC
DNA 2: TGGTGGCTACGACGGGATT
B24: CCGAGCG (DNA:RNA)
RNA: B1 RNA with G25C, G26C, U27G, C29G, A31G
DNA 1: CAATCTGAATTCCGGTCTCCC
DNA 2: TGGTGGCTACGACGGGATT
B25: CCGCGCA (DNA:RNA)
RNA: B1 RNA with G25C, G26C, U27G, A28C, C29G
DNA 1: CAATCTGAATTCCGGTCTCCC
DNA 2: TGGTGGCTACGACGGGATT
B26: UGAACAU (DNA:RNA)
RNA: B1 RNA with G25U, U27A, C30A, A31U
DNA 1: CAATCTGAATTCCGGTCTCCC
DNA 2: TGGTGGCTACGACGGGATT
B27: UUCGAUG (DNA:RNA)
RNA: B6 RNA with A25U, A26U, U28G, G30U
DNA 1: CAATCTGAATTCCGGTCTCCC
DNA 2: TGGTGGCTACGACGGGATT
B28: GUGCUUU (DNA:RNA)
RNA: B1 RNA with G26U, U27G, A28C, C29U, C30U, A31U
DNA 1: CAATCTGAATTCCGGTCTCCC
DNA 2: TGGTGGCTACGACGGGATT
B29: AUCAACU (DNA:RNA)
RNA: B6 RNA with A26U, U28A, G30C, G31U
DNA 1: CAATCTGAATTCCGGTCTCCC
DNA 2: TGGTGGCTACGACGGGATT
B30: GGCACAG (DNA:RNA)
RNA: B1 RNA with U27C, C30A, A31G
DNA 1: CAATCTGAATTCCGGTCTCCC
DNA 2: TGGTGGCTACGACGGGATT
B31: AAAAAAA (DNA:RNA)
RNA: B6 RNA with C27A, U28A, G30A, G31A
DNA 1: CAATCTGAATTCCGGTCTCCC
DNA 2: TGGTGGCTACGACGGGATT

Substitutions are numbered along the chain they refer to; changes in the protein carry UniProt numbers. The list shows a part of the results.

The target of this assay is T1, RBFOX1 RRM RbFoxmut (Fox-RRM*) (Homo sapiens, UniProt Q9NWB1 109-208, R118D;E147R;N151S;E152T).
T1 sequence: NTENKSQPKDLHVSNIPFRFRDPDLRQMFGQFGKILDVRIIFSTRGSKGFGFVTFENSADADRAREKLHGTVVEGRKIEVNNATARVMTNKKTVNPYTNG
Kind of assay: EMSA; HiTS-Eq, 1 nM pool, 10 min; buffer printed only for the single-RNA assays: 10 mM Tris pH 7.5, 150 mM NaCl, 3.4 mM EDTA, 0.001% NP-40, 30 C. Conditions: tags: His6 N-terminal (pET28a); label: 5' 32P. The procedure, abridged:
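Purified RbFox RRM, wild type or mutant, was incubated for 10 min in 50 µL with 1 nM of a 5′-radiolabelled RNA pool carrying 7 randomized nucleotides, whose flanks were annealed to DNA oligonucleotides, over a series of increasing protein concentrations. Unbound RNA was resolved on 8% native PAGE, cut out, reverse-transcribed, barcoded by PCR and sequenced on an Illumina HiSeq 2500. Relative association constants were derived from changes in read counts for each RNA species versus the control reaction and normalised to the cognate motif.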
Background: Mobility shift assays separate free from complexed probe on a gel.
Consider B1, for which the binding signal was 0.0922 KA relative to UGCAUGU. Next, B2: 0.119 KA relative to UGCAUGU; B3: 0.0429 KA relative to UGCAUGU; B4: 0.081 KA relative to UGCAUGU. B5: the binding signal was 0.092 KA relative to UGCAUGU. Next, B6: 0.082 KA relative to UGCAUGU; B7: 0.0848 KA relative to UGCAUGU. Turning to B8, the binding signal is 0.0936 KA relative to UGCAUGU.

On to B9, for which the binding signal was 0.0573 KA relative to UGCAUGU. Next, B10: 0.0999 KA relative to UGCAUGU.

On to B11, for which the binding signal is 0.0676 KA relative to UGCAUGU. On to B12, for which the binding signal is 0.0831 KA relative to UGCAUGU. With B13, the binding signal is 0.0686 KA relative to UGCAUGU. As to B14, the binding signal was 0.11 KA relative to UGCAUGU. The result for B15 reads 0.06 KA relative to UGCAUGU; that for B16, 0.0998 KA relative to UGCAUGU. The result for B17 reads 0.133 KA relative to UGCAUGU; that for B18, 0.0818 KA relative to UGCAUGU.

For the molecule B19, the binding signal is 0.278 KA relative to UGCAUGU. As to B20, the binding signal was 0.25 KA relative to UGCAUGU. As for B21, the binding signal was 0.0571 KA relative to UGCAUGU. Next, B22: 0.0554 KA relative to UGCAUGU; B23: 0.0801 KA relative to UGCAUGU. Take B24: the binding signal was 0.124 KA relative to UGCAUGU. For the molecule B25, the binding signal was 0.164 KA relative to UGCAUGU. Turning to B26, the binding signal is 0.0671 KA relative to UGCAUGU. The result for B27 reads 0.0892 KA relative to UGCAUGU. The result for B28 reads 0.108 KA relative to UGCAUGU; that for B29, 0.0766 KA relative to UGCAUGU; that for B30, 0.0846 KA relative to UGCAUGU. On to B31, for which the binding signal is 0.0827 KA relative to UGCAUGU.
